Results as given in PubChem BioAssay AID485344 (National Center for Advancing Translational Sciences (NCATS), 2010).
Screen size: about 340,000 compounds; about 6,900 (2%) were called active. No stated cut-off is given here; in the data, active means inhibition above about 30%; inactive means below that, where a call was filed. The list shows a part of the results, in another mix than the full data. The source gives no active or inactive call for entries shown without one.
Further: 0% is about no effect.

What follows are compounds tested against D(2) dopamine receptor (Homo sapiens) (UniProt P14416) (assay: HTS Assay for Allosteric Antagonists of the Human D2 Dopamine Receptor: Primary Screen for Antagonists). Details: HEK293 TREx D2 cells, calcium flux, dopamine EC80; at 10 µM; stronger effect = higher value.
Sequence of UniProt P14416 (P14416 whole entry, looked up): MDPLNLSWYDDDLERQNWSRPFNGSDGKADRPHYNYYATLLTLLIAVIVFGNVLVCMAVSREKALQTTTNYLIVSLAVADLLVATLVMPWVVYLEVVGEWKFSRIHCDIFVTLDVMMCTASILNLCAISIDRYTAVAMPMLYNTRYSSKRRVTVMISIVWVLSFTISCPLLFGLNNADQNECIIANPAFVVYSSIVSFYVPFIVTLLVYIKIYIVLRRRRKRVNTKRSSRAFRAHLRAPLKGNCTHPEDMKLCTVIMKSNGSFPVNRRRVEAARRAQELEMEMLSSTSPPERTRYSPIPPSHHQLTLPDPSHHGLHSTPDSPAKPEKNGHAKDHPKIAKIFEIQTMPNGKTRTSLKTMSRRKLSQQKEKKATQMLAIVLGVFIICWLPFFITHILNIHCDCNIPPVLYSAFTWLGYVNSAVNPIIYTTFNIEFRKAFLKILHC
Procedure, shortened: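 HEK293 T-REx D2 cells, tet-induced, calcium dye no-wash. Cpd pintool add, 180 s kinetic, then EC80 DA, 180 s kinetic. Ca flux read.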
CCOc1ccccc1C(=O)N1CCCCC1CCN1CCOCC1 (configuration not stated) was tested, and the inhibition was -3.28%. COc1cc(CC2COC(c3ccc(O)c(OC)c3)C2COC(C)=O)ccc1O (configuration not stated) was tested, and the inhibition was active: 44.7%. O=C1COc2ccc(-c3cc(-c4ccc(F)cc4)c4c(n3)-c3ccccc3OC4)cc2N1 gave an inhibition of 6.16%. In the case of CCOC(=O)C1(CC2CCCCO2)CCN(Cc2nc(-c3cccs3)oc2C)CC1 (configuration not stated), the inhibition is reported as active: 69.3%. For Cc1ccc(C(=O)CC2(O)C(=O)N(Cc3ccccc3)c3ccc(Br)cc32)cc1 (configuration not stated), the inhibition was -14.5%. For CCN(C(=O)c1ccc2c(=O)n3c(nc2c1)CCCCC3)c1cc(C)ccc1C, the inhibition was 2.33%. For CSc1nn(Cc2ccc(F)cc2)c(N)c1S(=O)(=O)c1ccc(Cl)cc1, the inhibition was -0.216%. With CCOc1ccc(S(=O)(=O)N2CCN(c3ccc(C)cc3C)CC2)c2ccccc12 the inhibition was 6.25%. With COc1ccc(N2C(=O)CCC2=O)cc1 the inhibition was active: 34.1%. With CCCN(CCC)CCCNC(=O)C1CCN(S(=O)(=O)c2cccc3nsnc23)CC1 the inhibition was 10.6%. Work on COc1cccc(CSc2nc(-c3ccccc3OC)nc3c2Cc2c(CO)cnc(C)c2O3)c1 yielded an inhibition of 4.92%. In the case of Cc1[nH]c2ccccc2c1C(=O)C(=O)NC1CC(=O)N(c2ccccc2)C1 (configuration not stated), the inhibition is reported as 22.8%. CCOc1ccccc1CNC(=O)CCn1cccn1 showed an inhibition of -0.0411%. COC(=O)c1ccc(NC(=O)CN(c2cccc(C(F)(F)F)c2)S(C)(=O)=O)cc1 showed an inhibition of -0.407%. With Cc1cccc(-n2c(SCC(=O)Nc3ccccc3C)nc3c(oc4ccccc43)c2=O)c1 the inhibition was -11.6%. CCc1ccccc1N1C(=O)N(C)c2ccccc2S1(=O)=O was tested, and the inhibition was 13.9%. Compound CCCCOC(=O)c1ccc(NC(=O)/C(C#N)=C/c2ccc(C)o2)cc1 has an inhibition of -8.18%. For O=C(COC(=O)c1cc(-c2cccs2)nn1-c1ccccc1)Nc1ccc(Cl)c([N+](=O)[O-])c1, the inhibition was active: 43.9%. Work on Cc1ccc(NC(=O)COCc2cc(-c3cccs3)on2)cc1Cl yielded an inhibition of 12.8%. For CCCCNS(=O)(=O)c1ccc2nc(-c3cccnc3)cc(C(=O)NCCCOCC)c2c1, the inhibition was -7.91%. Compound CCS(=O)(=O)N1CC(=O)N(c2ccc(C)c(C)c2)C(C)(C(=O)NC2CCCCCC2)C1 (configuration not stated) has an inhibition of -16.4%. With CCCN(C(=O)c1cn(CC(C)C)c(=O)c2cc(OC)c(OC)cc12)c1cccc(C)c1 the inhibition was 1.46%. With COc1ccc(N2CC(NC(=O)Cc3cccs3)CC2=O)cc1OC (configuration not stated) the inhibition was 17.1%. In the case of Cc1cc(S(=O)(=O)Nc2ccc3[nH]c(=O)sc3c2)ccc1F, the inhibition is reported as -6.95%. CCOc1cc(-c2nnc(SCC(=O)NCCCOC)nc2-c2ccc(OC)c(OCC)c2)ccc1OC was tested, and the inhibition was 14.7%. COc1ccc(NC(=O)C(NS(=O)(=O)c2cccc3nsnc23)c2ccccc2)cc1 (configuration not stated) was tested, and the inhibition was -13.2%. Work on CCC(=O)Nc1nnc(S(=O)(=O)N2CCCCCC2)s1 yielded an inhibition of 2.76%.
